These results are taken from PubChem BioAssay AID488969 (Vanderbilt High Throughput Screening Facility, 2010).

Over roughly 110,000 compounds, “z-score” has its median near -0.1; the highest 2% begin near 2. Some of the results follow. Activity calls are given as the source filed them.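 How the source made its calls: active means z-score in the third read window above 3 or below -3; inactive means the rest.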

This experiment deals with Metabotropic glutamate receptor 8 (Rattus norvegicus) (UniProt P70579). The experiment is described as follows: rat mGluR8 modulators via GIRK flux, primary screen, cell-based, thallium flux, HTS (AID 488969). To be noted: HEK293 rat mGluR8, GIRK (G protein-gated inwardly rectifying potassium channel) thallium flux, FluoZin2; at 10 µM; stronger effect = higher value; submaximal glutamate (EC20) added with thallium.
Chain of UniProt P70579 (P70579 whole entry, looked up): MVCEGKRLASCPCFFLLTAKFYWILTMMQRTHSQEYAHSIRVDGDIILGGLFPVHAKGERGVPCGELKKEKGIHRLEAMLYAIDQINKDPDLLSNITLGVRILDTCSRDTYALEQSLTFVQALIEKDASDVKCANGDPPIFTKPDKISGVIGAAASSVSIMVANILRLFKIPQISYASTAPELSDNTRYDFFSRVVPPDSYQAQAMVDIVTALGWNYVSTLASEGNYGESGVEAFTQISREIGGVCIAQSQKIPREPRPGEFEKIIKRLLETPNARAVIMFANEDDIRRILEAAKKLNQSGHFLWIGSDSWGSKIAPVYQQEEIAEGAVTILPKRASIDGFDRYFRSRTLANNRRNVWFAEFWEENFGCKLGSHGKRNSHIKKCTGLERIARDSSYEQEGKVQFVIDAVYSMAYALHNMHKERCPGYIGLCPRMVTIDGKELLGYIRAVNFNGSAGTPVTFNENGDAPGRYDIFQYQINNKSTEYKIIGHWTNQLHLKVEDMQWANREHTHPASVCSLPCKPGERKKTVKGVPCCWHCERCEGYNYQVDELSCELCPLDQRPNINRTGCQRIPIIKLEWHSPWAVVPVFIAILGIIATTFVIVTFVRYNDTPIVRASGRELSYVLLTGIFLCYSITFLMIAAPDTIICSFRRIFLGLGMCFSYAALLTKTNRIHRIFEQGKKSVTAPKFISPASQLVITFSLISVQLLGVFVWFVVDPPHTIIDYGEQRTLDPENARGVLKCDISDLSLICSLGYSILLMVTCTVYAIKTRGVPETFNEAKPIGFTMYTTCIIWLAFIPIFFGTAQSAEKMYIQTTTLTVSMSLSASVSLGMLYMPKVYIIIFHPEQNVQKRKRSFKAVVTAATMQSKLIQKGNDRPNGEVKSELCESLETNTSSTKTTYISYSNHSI
Turning to `CCOc1ccc(OCC)c(NC(=O)CCCN2C(=O)c3cccnc3C2=O)c1`, the z-score came out at 0.224.
On to `CC(C)CCn1c(Cl)nc2c1c(=O)n(C)c(=O)n2C`, for which the z-score is 2.04.
Next, `O=[N+]([O-])c1ccc2sc(SCc3nc4ccccn4c3Br)nc2c1`: -0.0596; `S=C(c1ccc2c(c1)OCO2)N1CCCCC1`: 0.65.
Next, `O=C(OCn1nnc2ccccc2c1=O)c1ccc2c(=O)n3c(nc2c1)CCC3`: 0.159; `COc1ccc(C(C(O)C(=O)c2c[nH]c3ccccc23)N2CCN(c3ccccc3)CC2)cc1` (stereo unspecified): -0.282.
In the case of `O=C(CNC(=S)NC(=O)c1ccccc1)c1ccccc1` it was 0.079.
For the molecule `Cn1c2c(c(=O)n(C)c1=O)C(NS(=O)(=O)c1ccccc1)(C(F)(F)F)C(=O)N2` (stereo unspecified), the z-score was -0.132.
The molecule `O=C(c1ccccc1CCc1ccccc1)N1CCN(c2ccccn2)CC1` showed a z-score of 2.38.
Take `CNC(=O)COC(=O)/C=C/c1c(C)nn(-c2ccccc2)c1C`: the z-score is -0.285.
For `CCCc1cc(=O)[nH]c(SCc2cc(Cl)ccc2OC(F)F)n1`, the z-score stood at 0.377.
With `COc1ccccc1N1CCN(CC(O)COc2ccc3c(c2)CCC3)CC1` (stereo unspecified), the z-score was -0.492.
As for `CC(c1ccccc1)n1cc(C(=O)NCCCn2ccnc2)nn1` (stereo unspecified), the z-score was -0.121.
Next, `S=c1[nH]nc(-c2ccccn2)n1/N=C/c1cccs1`: -0.126; `CCOc1ccc(OCc2cccc(C(=O)N3CCOCC3)c2)cc1`: -0.775.
Next, `Cc1ccc(S(=O)(=O)c2c(C)cc(C)nc2Oc2cccc(C)c2C)cc1`: -0.128; `CCNc1nc(OC)nc(Oc2ccc(=O)n(-c3ccccc3)n2)n1`: -0.172; `Cc1ccc(CN(CC(=O)N/N=C/c2ccco2)S(=O)(=O)c2ccc(C)cc2)cc1`: 0.156.
In the case of `CCn1c(SCC(=O)Nc2ccccc2F)nc2c(c1=O)SC(C)C2` (stereo unspecified) it was -1.87.
For the molecule `CC1=NN(/C(=N\c2nnc(C)s2)Nc2ccccc2)[C@H](c2ccc(C)cc2)S1`, the z-score is -0.444.
In the case of `CCOc1ccc(NC(=O)C2CC(C)=C(C)CC2C(=O)O)cc1` (stereo unspecified) it was -0.29; in that of `O=C(Nc1ccc(Cl)cn1)c1ccc(-c2ccc(Cl)c(Cl)c2)o1`, -0.219; in that of `COC(=O)c1cn(NC(=O)c2ccc(OC)c(OC)c2)c(=O)c2ccccc12`, 0.137.
As to `COc1ccccc1NC(=O)c1sc2ncn(Cc3ccccc3C)c(=O)c2c1C`, the z-score was -0.027.
In the case of `CCC1OC23CCCCC2C(C#N)(C(=N)O3)C1(C#N)C#N` (stereo unspecified) it was 0.141; in that of `CCCN1Cc2cccc(C(=O)N3CCN(c4ccccc4)CC3)c2C1=O`, -0.225; in that of `O=C(COc1ccc(S(=O)(=O)NC2CCCC2)cc1)N1CCCCCC1`, -0.036.
Next, `O=C(CN(C1CCCCC1)S(=O)(=O)c1ccccc1)NCc1ccco1`: -0.257.
`COc1cccc(C(=O)Nc2nnc(-c3cccs3)o2)c1` showed a z-score of 0.124.
Turning to `COC(=O)/C(=C/c1cn(C)c2ccccc12)[N+](=O)[O-]`, the z-score was 0.0204.
In the case of `COc1ccc2o/c(=N/NC(=S)Nc3ccccc3)c(C(N)=O)cc2c1` it was -0.552; in that of `Cc1ccc(S(=O)(=O)CCSc2nc(C)cc(C)c2C#N)cc1`, -0.737; in that of `CC1(NC(=O)COc2ccccc2-c2ccccc2)CCS(=O)(=O)C1` (stereo unspecified), -0.149.
In the case of `CCOC(=O)CN1C(=O)S/C(=C/C=C/c2ccc(N(C)C)cc2)C1=O` it was -0.189; in that of `CCCCOc1ccc(C(=O)N/C(=C\c2cccc([N+](=O)[O-])c2)C(=O)OCCC)cc1`, -0.146; in that of `Cc1cccc(C(=O)NCCN(C)C)c1`, -0.0922.
In the case of `CCOC(=O)C1CN(S(=O)(=O)c2ccccc2)c2cc(S(=O)(=O)CC)ccc2O1` (stereo unspecified) it was -0.661; in that of `COc1cc(CNCCO)cc(Br)c1OCc1ccccc1Cl`, 1.32; in that of `CSc1cc(C)n(-c2ccccc2)c(=S)c1C(C)=O`, -0.0675.
`O=C(NCCNS(=O)(=O)c1ccccc1)N1CCOCC1` came in with a z-score of 0.663.
In the case of `Cc1cc(/C=N/Nc2ccc([N+](=O)[O-])cn2)c(C)n1-c1ccccc1`, the z-score was 1.04.
For `COc1ccccc1N1CCN(C(=O)c2oc3cc(C)cc(C)c3c2C)CC1`, the z-score came to 0.208.
Regarding `CC(C)(C)n1nc(-c2ccc(F)cc2)c2c(N)ncnc21`, the z-score is -0.235.
Next, `CCC(=O)N=c1sc2cc([N+](=O)[O-])ccc2n1CCOC`: -0.0152; `Cc1cc(C)n(-c2nc3ccccc3nc2N2CCN(C(=O)c3ccccc3)CC2)n1`: -0.275; `CSc1nc2sc3c(c2c(=O)n1C1CCCCC1)CCN(C)C3`: 0.112.
As to `CCOC(=O)c1c(C)[nH]c(C(=O)COC(=O)CNC(=O)c2ccc(Cl)cc2Cl)c1C`, the z-score was -0.202.
In the case of `COc1cccc(C(=O)CSc2nnnn2C)c1` it was -0.273; in that of `Nc1nc(SCc2ccc(Cl)cc2Cl)nc2nc3c(cc12)CCCC3`, -0.129.
Next, `O=C(NNC(=O)c1ccccc1-n1cccc1)c1ccccc1`: -0.124; `Cc1cccc(N2C(S)=C(C#N)C(=O)NC2c2cccs2)c1` (stereo unspecified): -1.01; `Cc1cccc(C(=O)N/N=C/c2ccncc2)c1`: 0.199.
On to `C=C(C)CN(CC)c1nc(N)c2c(N)nc3c(c2c1C#N)CC(=O)N3C12CC3CC(CC(C3)C1)C2`, for which the z-score amounted to 0.632.
Turning to `COC(=O)c1cn(-c2ccccc2)nc1-c1ccccc1`, the z-score is -0.105.
In the case of `Cc1cc(NC(=O)COC(=O)c2cccc(OCc3ccccc3)c2)no1` it was 0.388; in that of `CCOc1ccccc1NC(=O)CC1Nc2ccccc2NC1=O` (stereo unspecified), -0.513; in that of `Cn1cc(SCC(=O)NCC2CCCO2)c2ccccc21` (stereo unspecified), -0.131.
Regarding `COc1ccc(OC)c(NC(=O)CSc2nnc(C3CCCCC3)n2-c2ccccc2)c1`, the z-score was -0.765.
Next, `Cc1cc(C)n(/N=C/c2c[nH]c3ccccc23)c(=O)c1`: -0.182.
Consider `O=c1[nH]c(Nc2ccccc2)cc2ccccc12`, for which the z-score was -0.194.
Next, `CCOC(=O)C1=C(O)/C(=C/c2cc(OC)c(OC)c(OC)c2)N=C1C`: 0.29.
As for `Cc1cc(C)n(C(=O)CNC(=O)c2ccc3c(c2)OCCO3)n1`, the z-score was -0.237.
Next, `Cc1ccc(Nc2nc(C(=O)NCc3ccco3)cs2)cc1`: -0.436; `CCN(c1ccc(NC(=O)COC(=O)c2ccc(S(=O)(=O)N3CCCC3)cc2)cc1)C(C)C`: -0.381.
In the case of `COC(=O)CN1C(=O)C2(C(C#N)=C(N)Oc3ccccc32)C2=C1CC(C)(C)CC2=O` (stereo unspecified) it was -0.271; in that of `Cn1cnnc1SCc1ccc(C#N)cc1Cl`, 0.32.
As for `COCCNC(=S)N(Cc1cccnc1)Cc1ccc(OC)c(OC)c1`, the z-score was -0.0571.
Next, `CCCCC(CC)Cn1c2nc3ccccc3nc2c2c(=N)oc(C)nc21` (stereo unspecified): -0.0501; `CC1=NN(c2cccc(C(=O)O)c2)C(=O)/C1=C\C=C\c1ccco1`: -0.885; `CCOC(=O)C1=C(C)NC(=S)NC1c1ccc(-c2ccc(Cl)cc2)o1` (stereo unspecified): 0.0328.
`O=C(NC1CCCC1)c1ccc(CS(=O)(=O)c2ccc(Br)cc2)o1`: the z-score is -0.0628.
For `O=C(O)C1C2C=CC(C3CC23)C1C(=O)O` (stereo unspecified), the z-score came out at 0.289.
In the case of `O=C(NCc1ccccc1Cl)c1cccc(C(F)(F)F)c1` it was 0.146; in that of `COc1c(F)c(F)c(C(=O)Nc2ccc(NC(=O)c3ccco3)cc2)c(F)c1F`, 0.273; in that of `CCOC(=O)/C(=C\c1c[nH]c2ccccc12)NC(C)=O`, -0.156.
Next, `Cc1ccc(C(c2sc3ncnn3c2O)N2CCCCC2)cc1` (stereo unspecified): -0.0709; `CCOC(=O)N1CCN(CCC(=O)Nc2cccc(Br)c2)CC1`: -0.16; `Nc1cc(C(=O)N2CCCC2)cc(C(=O)N2CCCC2)c1`: 0.00992.
Molecule `O=C(NCc1cccnc1)c1cccc(NC(=O)c2ccco2)c1` gave a z-score of 0.316.
Consider `O=C(NCCCN1CCCCCC1)c1ccc(N2CCCC2=O)cc1`, for which the z-score was -0.0426.
`Cc1c(C(=O)Nc2cccc([N+](=O)[O-])c2)csc1-c1ccccc1` yielded a z-score of 0.0674.
In the case of `CC(C)(C)c1ccc(C(=O)N2CCC(C(=O)NCC3CCCO3)CC2)cc1` (stereo unspecified) it was 0.584; in that of `Cc1nn(CC(=O)NNC(=S)Nc2ccccc2)c(C)c1[N+](=O)[O-]`, -1.25; in that of `O=C(COc1ccc(S(=O)(=O)NC2CCCCC2)cc1Cl)NCC1CCCO1` (stereo unspecified), -0.0074.
Next, `O=C(NNC(=S)NC1CCCCC1)c1sc2ccccc2c1Cl`: -0.163.
In the case of `CN(C)S(=O)(=O)N1CCN(C(=O)N2CCOCC2)CC1` it was -0.179.
For `Cc1cc(C)nc(NC(=O)CSc2nc3ccccc3o2)n1`, the z-score is -0.472.
In the case of `COC(=O)c1sccc1Oc1ccc(F)cc1[N+](=O)[O-]` it was 0.137; in that of `Cc1nc2ccccc2n1C1CC(=O)N(Cc2ccccc2)C1=O` (stereo unspecified), -0.114.
Take `CCn1ncc(/C=C/C(=O)Nc2c(C)nn(CC)c2C)c1C`: the z-score is -0.306.
In the case of `CS(=O)(=O)N(CC(=O)N/N=C/c1ccc(OCC(=O)N2CCOCC2)cc1)c1ccccc1Cl` it was 1.52; in that of `CCC(=O)Nc1ccc(C(=O)CSc2nnc(-c3ccc(NS(C)(=O)=O)cc3)n2C)cc1OC`, 0.001; in that of `CCOC(=O)Cc1csc(NC(=O)CS(=O)(=O)Cc2ccccc2)n1`, 0.0101.
In the case of `CC(C)[C@H](NC(=O)c1ccccc1)C(=O)OCC(=O)N1CCCc2ccccc21` it was 0.0154; in that of `O=C(CCc1nc(-c2ccccc2F)no1)NCCN1CCc2ccccc2C1`, -0.354; in that of `Cc1nn2c3c(cnc2c1-c1ccccc1)C(=O)CCC3`, -0.149.
Next, `COc1ccccc1S(=O)(=O)Cc1ccc(C(=O)N2CCCC2)o1`: -0.34; `CCNC(=S)N/N=C(\C)c1ccc(Cl)s1`: active: 4.7; `CCN(CC)C(=O)Oc1ccc2c(=O)c(-c3ccc(OC)cc3)c(C)oc2c1`: -0.142.
With `Cc1cccn2c(=O)c3cc(C#N)c(=O)n(CCCN4CCOCC4)c3nc12`, the z-score was -0.248.
For the molecule `Clc1ccc(CSc2nnc(-c3cccnc3)o2)cc1`, the z-score was -0.291.
As for `O=C(NCCCCNC(=O)c1cccnc1)c1cccnc1`, the z-score was active: 8.98.
Next, `Cc1oc(-c2ccccc2)cc1C(=O)Nc1cccc(C(=O)O)c1`: -2.65; `Cc1ccc2nc3c(cc(C(N)=S)c(=N)n3CCCOC(C)C)c(=O)n2c1`: 0.823; `CCC(=O)c1cn(CC(=O)NCc2ccco2)c2ccccc12`: -0.0249.
Turning to `Cc1cc2ccccc2n2c(SCC(=O)NCc3cccs3)nnc12`, the z-score is -0.225.
Next, `COC(=O)c1ccccc1NS(=O)(=O)c1ccc2[nH]c(=O)[nH]c2c1`: -0.413.
Take `CS(=O)(=O)N(CC(=O)O)c1cccc(Cl)c1`: the z-score was -0.142.
In the case of `O=C(Nc1nc(-c2ccccc2)c(-c2ccccc2)s1)c1ccc(S(=O)(=O)N2CCCCC2)cc1` it was -0.0357.
On to `CCc1c(C)sc(NC(=O)C2CCCO2)c1C#N` (stereo unspecified), for which the z-score was 0.364.
Next, `Cc1ccc(NC(=O)C2(c3ccc([N+](=O)[O-])cc3)CCCC2)cc1`: 0.0272.
